Assay results taken from publication PMC12820563, “FoxP3 forms a head-to-head dimer in vivo and stabilizes its multimerization on adjacent microsatellites”.
The other results are listed elsewhere or left out.

target: T1, MBP-FoxP1dN (Mus musculus, UniProt P58462 326-579); test: PD-seq (MBP pull-down with sequencing); 20 mM Tris-HCl pH 7.5, 100 mM NaCl, 1.5 mM MgCl2, 0.4 uM protein, 0.1 uM dsDNA library, 30 min, room temperature, amylose pull-down; high values mean tight binding; details: protein: recombinant; tags: His6-MBP; chain copies: 2; dsDNA, one strand shown
T1 sequence: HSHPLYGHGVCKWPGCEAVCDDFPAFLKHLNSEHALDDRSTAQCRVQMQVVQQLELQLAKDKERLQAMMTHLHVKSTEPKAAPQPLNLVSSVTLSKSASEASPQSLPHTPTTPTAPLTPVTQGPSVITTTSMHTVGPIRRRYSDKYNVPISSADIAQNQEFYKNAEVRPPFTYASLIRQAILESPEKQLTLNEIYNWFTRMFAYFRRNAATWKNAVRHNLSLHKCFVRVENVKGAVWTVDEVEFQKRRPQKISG
Outline: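 His6-MBP-tagged mouse FoxP3 or FoxP1 fragment lacking the N-terminus, expressed in E. coli, was mixed at 0.4 µM with 0.1 µM Klenow-filled double-stranded degenerate DNA library. Incubation was 30 min at room temperature in Tris pH 7.5 buffer with NaCl and MgCl2. Complexes were caught on amylose resin and washed three times; DNA was released with proteinase K, PCR-barcoded and Illumina-sequenced. Binding is reads-per-million enrichment, pull-down over input, with replicates pooled.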

For “GATGATTGTTCTCCCAGCTGATGAATTTGGGTTCTCGAGTAAACAAATTTTCCTAATCTTTCTGTTCAAGCGCCATCTAC”, which binding signal is on record?
The binding signal was 0.83 RPM ratio (pull-down/input).

Which binding signal does the source give for “GATGATTGTTCTCCCAGCTGATGAATTACTACATTCGAGTAAACAAATTTTCCTAATCTTTCTGTTCAAGCGCCATCTAC” here?
Its binding signal is 1.27 RPM ratio (pull-down/input).

For “GATGATTGTTCTCCCAGCTGATGAATTCCTCACGTCGAGTAAACAAATTTTCCTAATCTTTCTGTTCAAGCGCCATCTAC”, which binding signal is on record?
Its binding signal is 0.918 RPM ratio (pull-down/input).

How did the binding signal turn out when “GATGATTGTTCTCCCAGCTGATGAATTGGTCTTCTCGAGTAAACAAATTTTCCTAATCTTTCTGTTCAAGCGCCATCTAC” was run?
The binding signal was 0.855 RPM ratio (pull-down/input).

“GATGATTGTTCTCCCAGCTGATGAATTAAAGAAGTCGAGTAAACAAATTTTCCTAATCTTTCTGTTCAAGCGCCATCTAC” was tested. Which binding signal did it give?
Its binding signal is 0.84 RPM ratio (pull-down/input).

For “GATGATTGTTCTCCCAGCTGATGAATTCGCGCCATCGAGTAAACAAATTTTCCTAATCTTTCTGTTCAAGCGCCATCTAC”, which binding signal is on record?
Its binding signal is 0.994 RPM ratio (pull-down/input).

How did the binding signal turn out when “GATGATTGTTCTCCCAGCTGATGAATTAGGCCGGTCGAGTAAACAAATTTTCCTAATCTTTCTGTTCAAGCGCCATCTAC” was run?
Its binding signal is 0.777 RPM ratio (pull-down/input).

With “GATGATTGTTCTCCCAGCTGATGAATTATACAGGTCGAGTAAACAAATTTTCCTAATCTTTCTGTTCAAGCGCCATCTAC” as the sequence, how does the binding signal read?
Its binding signal is 1.06 RPM ratio (pull-down/input).

How did the binding signal turn out when “GATGATTGTTCTCCCAGCTGATGAATTACGCGCTTCGAGTAAACAAATTTTCCTAATCTTTCTGTTCAAGCGCCATCTAC” was run?
Its binding signal is 1.04 RPM ratio (pull-down/input).

Which binding signal does the source give for “GATGATTGTTCTCCCAGCTGATGAATTTTGCCCCTCGAGTAAACAAATTTTCCTAATCTTTCTGTTCAAGCGCCATCTAC” here?
The binding signal was 0.878 RPM ratio (pull-down/input).

“GATGATTGTTCTCCCAGCTGATGAATTAGGTATATCGAGTAAACAAATTTTCCTAATCTTTCTGTTCAAGCGCCATCTAC” was tested. Which binding signal did it give?
Its binding signal is 0.972 RPM ratio (pull-down/input).

With “GATGATTGTTCTCCCAGCTGATGAATTTCACGCTTCGAGTAAACAAATTTTCCTAATCTTTCTGTTCAAGCGCCATCTAC” as the sequence, how does the binding signal read?
Its binding signal is 0.901 RPM ratio (pull-down/input).

“GATGATTGTTCTCCCAGCTGATGAATTACGTGAATCGAGTAAACAAATTTTCCTAATCTTTCTGTTCAAGCGCCATCTAC” was tested. Which binding signal did it give?
The binding signal was 1.11 RPM ratio (pull-down/input).

Which binding signal does the source give for “GATGATTGTTCTCCCAGCTGATGAATTAGCATAATCGAGTAAACAAATTTTCCTAATCTTTCTGTTCAAGCGCCATCTAC” here?
Its binding signal is 1.18 RPM ratio (pull-down/input).

“GATGATTGTTCTCCCAGCTGATGAATTGTAAATATCGAGTAAACAAATTTTCCTAATCTTTCTGTTCAAGCGCCATCTAC” was tested. Which binding signal did it give?
The binding signal was 2.72 RPM ratio (pull-down/input).

Which binding signal does the source give for “GATGATTGTTCTCCCAGCTGATGAATTTGCAAGTTCGAGTAAACAAATTTTCCTAATCTTTCTGTTCAAGCGCCATCTAC” here?
Its binding signal is 1.01 RPM ratio (pull-down/input).

How did the binding signal turn out when “GATGATTGTTCTCCCAGCTGATGAATTAATTGGGTCGAGTAAACAAATTTTCCTAATCTTTCTGTTCAAGCGCCATCTAC” was run?
The binding signal was 0.951 RPM ratio (pull-down/input).

“GATGATTGTTCTCCCAGCTGATGAATTGCAGAGGTCGAGTAAACAAATTTTCCTAATCTTTCTGTTCAAGCGCCATCTAC” was tested. Which binding signal did it give?
Its binding signal is 0.92 RPM ratio (pull-down/input).

“GATGATTGTTCTCCCAGCTGATGAATTAGTATGGTCGAGTAAACAAATTTTCCTAATCTTTCTGTTCAAGCGCCATCTAC” was tested. Which binding signal did it give?
The binding signal was 1.01 RPM ratio (pull-down/input).

For “GATGATTGTTCTCCCAGCTGATGAATTCTACACGTCGAGTAAACAAATTTTCCTAATCTTTCTGTTCAAGCGCCATCTAC”, which binding signal is on record?
The binding signal was 0.923 RPM ratio (pull-down/input).

“GATGATTGTTCTCCCAGCTGATGAATTAGTGAACTCGAGTAAACAAATTTTCCTAATCTTTCTGTTCAAGCGCCATCTAC” was tested. Which binding signal did it give?
The binding signal was 0.879 RPM ratio (pull-down/input).

Which binding signal does the source give for “GATGATTGTTCTCCCAGCTGATGAATTTGCCAGTTCGAGTAAACAAATTTTCCTAATCTTTCTGTTCAAGCGCCATCTAC” here?
The binding signal was 0.977 RPM ratio (pull-down/input).

How did the binding signal turn out when “GATGATTGTTCTCCCAGCTGATGAATTAATCACATCGAGTAAACAAATTTTCCTAATCTTTCTGTTCAAGCGCCATCTAC” was run?
The binding signal was 1.3 RPM ratio (pull-down/input).

How did the binding signal turn out when “GATGATTGTTCTCCCAGCTGATGAATTTGTGGCGTCGAGTAAACAAATTTTCCTAATCTTTCTGTTCAAGCGCCATCTAC” was run?
The binding signal was 1.17 RPM ratio (pull-down/input).

With “GATGATTGTTCTCCCAGCTGATGAATTTTATCCCTCGAGTAAACAAATTTTCCTAATCTTTCTGTTCAAGCGCCATCTAC” as the sequence, how does the binding signal read?
Its binding signal is 0.949 RPM ratio (pull-down/input).

How did the binding signal turn out when “GATGATTGTTCTCCCAGCTGATGAATTGTCTCGTTCGAGTAAACAAATTTTCCTAATCTTTCTGTTCAAGCGCCATCTAC” was run?
Its binding signal is 0.908 RPM ratio (pull-down/input).

For “GATGATTGTTCTCCCAGCTGATGAATTCCTGCTGTCGAGTAAACAAATTTTCCTAATCTTTCTGTTCAAGCGCCATCTAC”, which binding signal is on record?
Its binding signal is 1.13 RPM ratio (pull-down/input).

How did the binding signal turn out when “GATGATTGTTCTCCCAGCTGATGAATTGCTAATTTCGAGTAAACAAATTTTCCTAATCTTTCTGTTCAAGCGCCATCTAC” was run?
The binding signal was 1.35 RPM ratio (pull-down/input).

With “GATGATTGTTCTCCCAGCTGATGAATTCTCGTGTTCGAGTAAACAAATTTTCCTAATCTTTCTGTTCAAGCGCCATCTAC” as the sequence, how does the binding signal read?
Its binding signal is 0.906 RPM ratio (pull-down/input).

For “GATGATTGTTCTCCCAGCTGATGAATTTCCTCAATCGAGTAAACAAATTTTCCTAATCTTTCTGTTCAAGCGCCATCTAC”, which binding signal is on record?
The binding signal was 0.921 RPM ratio (pull-down/input).

“GATGATTGTTCTCCCAGCTGATGAATTCCGATCATCGAGTAAACAAATTTTCCTAATCTTTCTGTTCAAGCGCCATCTAC” was tested. Which binding signal did it give?
The binding signal was 0.875 RPM ratio (pull-down/input).

With “GATGATTGTTCTCCCAGCTGATGAATTGGTTGATTCGAGTAAACAAATTTTCCTAATCTTTCTGTTCAAGCGCCATCTAC” as the sequence, how does the binding signal read?
The binding signal was 1.07 RPM ratio (pull-down/input).

For “GATGATTGTTCTCCCAGCTGATGAATTGGGGACGTCGAGTAAACAAATTTTCCTAATCTTTCTGTTCAAGCGCCATCTAC”, which binding signal is on record?
The binding signal was 0.865 RPM ratio (pull-down/input).

With “GATGATTGTTCTCCCAGCTGATGAATTTGGATTGTCGAGTAAACAAATTTTCCTAATCTTTCTGTTCAAGCGCCATCTAC” as the sequence, how does the binding signal read?
Its binding signal is 1.02 RPM ratio (pull-down/input).

For “GATGATTGTTCTCCCAGCTGATGAATTTCCTTGCTCGAGTAAACAAATTTTCCTAATCTTTCTGTTCAAGCGCCATCTAC”, which binding signal is on record?
The binding signal was 0.803 RPM ratio (pull-down/input).

Which binding signal does the source give for “GATGATTGTTCTCCCAGCTGATGAATTGACTTACTCGAGTAAACAAATTTTCCTAATCTTTCTGTTCAAGCGCCATCTAC” here?
Its binding signal is 1.07 RPM ratio (pull-down/input).

How did the binding signal turn out when “GATGATTGTTCTCCCAGCTGATGAATTCTTAGTGTCGAGTAAACAAATTTTCCTAATCTTTCTGTTCAAGCGCCATCTAC” was run?
Its binding signal is 0.919 RPM ratio (pull-down/input).

For “GATGATTGTTCTCCCAGCTGATGAATTGTCGTCATCGAGTAAACAAATTTTCCTAATCTTTCTGTTCAAGCGCCATCTAC”, which binding signal is on record?
Its binding signal is 1.23 RPM ratio (pull-down/input).

With “GATGATTGTTCTCCCAGCTGATGAATTTCTGCACTCGAGTAAACAAATTTTCCTAATCTTTCTGTTCAAGCGCCATCTAC” as the sequence, how does the binding signal read?
The binding signal was 0.936 RPM ratio (pull-down/input).

For “GATGATTGTTCTCCCAGCTGATGAATTGTTATTTTCGAGTAAACAAATTTTCCTAATCTTTCTGTTCAAGCGCCATCTAC”, which binding signal is on record?
The binding signal was 3.47 RPM ratio (pull-down/input).
